According to the antibiotic and cytotoxicity screens of Wong et al. (2023):
This is one part of the list.

Key:
HSkMC = human skeletal muscle cells; experiment: cytotoxicity call (relative viability < 0.9); settings: 10 µM
HepG2 = experiment: cytotoxicity call (relative viability < 0.9); settings: 10 µM
S. aureus RN4220 = experiment: growth inhibition call (relative growth <= 0.2); settings: 50 µM

| SMILES | cytotoxicity call (HSkMC) | cytotoxicity call (HepG2) | growth inhibition call (S. aureus RN4220) |
| --- | --- | --- | --- |
| CC(C)Oc1ccccc1OCc1cnnn1CC(=O)NS(=O)(=O)c1ccccc1OC(F)(F)F | inactive | inactive | inactive |
| NCCCCCNC(=O)[C@@H]1C[C@@H]2C(=O)N[C@@H](Cc3ccccc3)C(=O)N2[C@@H]1c1cccc(OCCO)c1 | inactive | inactive | inactive |
| C[C@H](CO)N1C[C@H](C)[C@@H](CN(C)C(=O)Nc2cccc3ccccc23)OCCCC[C@H](C)Oc2ccc(NC(=O)Cc3ccccc3)cc2C1=O | inactive | inactive | inactive |
| C=CCN([C@@H](Cc1ccccc1)[C@@H](O)c1cn(CCCNC(=O)C(=O)NC)nn1)S(=O)(=O)c1ccccc1[N+](=O)[O-] | inactive | inactive | inactive |
| COc1ccccc1-c1ccc2c(c1)O[C@@H](CN(C)C(=O)c1cccnc1)[C@@H](C)CN([C@@H](C)CO)S2(=O)=O | inactive | inactive | inactive |
| Oc1c(Cl)cc(Cl)c(Cl)c1Cc1c(O)c(Cl)cc(Cl)c1Cl | active | active | inactive |
| CC(=O)NC1C(NC(=N)N)C=C(C(=O)O)OC1C(O)C(O)CO (configuration not stated) | inactive | inactive | inactive |
| C[C@H](CO)N1C[C@H](C)[C@H](CN(C)Cc2ccc(C(=O)Nc3ccccc3N)cc2)Oc2ccc(NC(=O)C3CCCCC3)cc2C1=O | inactive | inactive | inactive |
| NC(=O)NC(=O)C[C@H]1Nc2ccccc2NC1=O | inactive | inactive | inactive |
| CO[C@@H]1CN(C)C(=O)c2cc(NC(=O)Nc3ccc(Cl)cc3)ccc2OC[C@H](C)N(C(=O)Nc2c(C)noc2C)C[C@@H]1C | inactive | inactive | inactive |
| CC1=C2C(O)C(=O)OC3CC4C(C)(C)C(=O)C=CC4(C)C(CC1)C23C (configuration not stated) | inactive | inactive | inactive |
| COc1ccc(S(=O)(=O)N(C)C[C@@H]2Oc3ncc(C#CC(C)(C)O)cc3C(=O)N([C@H](C)CO)C[C@@H]2C)cc1 | inactive | inactive | inactive |
| C[C@@H]1CCCCO[C@H](CN(C)S(=O)(=O)c2cn(C)cn2)[C@H](C)CN([C@@H](C)CO)C(=O)c2cc(NS(=O)(=O)c3cccs3)ccc2O1 | inactive | inactive | inactive |
| C=CC[C@H](CC(=O)N(CCO)Cc1ccccc1)C(=O)N[C@H](COC(=O)[C@H](CC=C)CC(=O)OC(C)(C)C)Cc1c[nH]c2ccccc12 | inactive | inactive | inactive |
| Cc1noc(C)c1NC(=O)N[C@@H]1CC[C@@H](CC(=O)N2CCN(C)CC2)O[C@@H]1CO | inactive | inactive | inactive |
| C[C@H]1CCCCO[C@@H](CN(C)Cc2ccc(C(F)(F)F)cc2)[C@@H](C)CN([C@@H](C)CO)C(=O)c2cc(NC(=O)Nc3cccc4ccccc34)ccc2O1 | inactive | inactive | inactive |
| COc1ccc(NC(=O)Nc2ccc3c(c2)C(=O)N([C@H](C)CO)C[C@H](C)[C@@H](CN(C)C(=O)Nc2ccc(C(F)(F)F)cc2)O3)cc1 | inactive | inactive | inactive |
| C[C@H](CO)N1C[C@H](C)[C@@H](CN(C)CC2CCCCC2)Oc2c(NC(=O)Nc3ccc(F)cc3)cccc2C1=O | inactive | inactive | inactive |
| O=C(C[C@@H]1C=C[C@H](NC(=O)Nc2cc(F)ccc2F)[C@H](CO)O1)NCCCN1CCOCC1 | inactive | inactive | inactive |
| C[C@@H]1CCCCO[C@H](CN(C)Cc2ccncc2)[C@H](C)CN([C@H](C)CO)C(=O)c2cc(NC(=O)C3CCCCC3)ccc2O1 | inactive | inactive | inactive |

| SMILES | cytotoxicity call (HSkMC) | cytotoxicity call (HepG2) | growth inhibition call (S. aureus RN4220) |
| --- | --- | --- | --- |
| CC(=O)N(C)C[C@H]1Oc2ncc(C#CC(C)(C)O)cc2C(=O)N([C@@H](C)CO)C[C@H]1C | inactive | inactive | inactive |
| C[C@@H]1CCCCO[C@@H](CN(C)Cc2ccc(C(=O)O)cc2)[C@@H](C)CN([C@@H](C)CO)C(=O)c2cc(NC(=O)NC3CCCCC3)ccc2O1 | inactive | inactive | inactive |
| C[C@@H]1CCCCO[C@@H](CN(C)C(=O)C2CCCCC2)[C@H](C)CN([C@H](C)CO)C(=O)c2cc(NC(=O)Nc3ccccc3)ccc2O1 | inactive | inactive | inactive |
| Cn1cnc(S(=O)(=O)N2C[C@@H](O)COC[C@H]3O[C@@H](CC(=O)N4CCN(c5ccccc5)CC4)CC[C@@H]32)c1 | inactive | inactive | inactive |
| CON | inactive | inactive | inactive |
| O=C(C[C@H]1CC[C@@H]2NC[C@@H](O)COC[C@H]2O1)NCCN1CCCCC1 | inactive | inactive | inactive |
| C[C@@H]1CN([C@@H](C)CO)S(=O)(=O)c2ccc(C#Cc3ccncc3)cc2O[C@H]1CN(C)S(=O)(=O)c1ccc(F)cc1 | inactive | active | inactive |
| Nc1[nH]ncc1-c1cc(Cl)ccc1Oc1cc(F)c(S(=O)(=O)Nc2cscn2)cc1Cl | inactive | inactive | inactive |
| C[C@@H]1CN([C@@H](C)CO)C(=O)c2cc(NC(=O)Cc3cn(C)c4ccccc34)ccc2O[C@H]1CN(C)Cc1ccc(Cl)c(Cl)c1 | inactive | active | inactive |
| Cc1noc(C)c1NC(=O)N(C)C[C@H]1Oc2c(NS(=O)(=O)c3cn(C)cn3)cccc2C(=O)N([C@H](C)CO)C[C@H]1C | inactive | inactive | inactive |
| COc1ccc2c3c(n(c2c1)C)[C@H](CO)N(C[C@]13CCN(CC1)C(=O)CN(C)C)S(=O)(=O)C | inactive | inactive | inactive |
| Cc1cc(C)n([C@@H](CC(=O)O)C(=O)O)n1 | inactive | inactive | inactive |
| C[C@@H]1CN([C@@H](C)CO)C(=O)c2cc(-c3ccc(F)cc3)cnc2O[C@H]1CN(C)C(=O)Cc1ccccn1 | inactive | inactive | inactive |
| COC(=O)C[C@H]1CC[C@@H]2[C@H](COC[C@H](O)CN2S(=O)(=O)c2cn(C)cn2)O1 | inactive | inactive | inactive |
| C[C@@H]1CCCCO[C@H](CN(C)S(=O)(=O)c2ccccc2)[C@@H](C)CN([C@H](C)CO)C(=O)c2cc(NC(=O)CCCCCC(=O)Nc3ccccc3N)ccc2O1 | inactive | inactive | inactive |
| CC(=O)N1[C@H](CNC(=O)CN2CCOCC2)[C@H](c2ccccc2)[C@@H]1CO | inactive | inactive | inactive |
| C[C@@H]1CN([C@H](C)CO)C(=O)Cc2cc(NS(=O)(=O)c3ccc(Cl)cc3)ccc2O[C@H]1CN(C)C | inactive | inactive | inactive |
| C[C@H](CO)N1C[C@H](C)[C@@H](CN(C)S(=O)(=O)c2cn(C)cn2)Oc2ccc(NC(=O)CCCN(C)C)cc2C1=O | inactive | inactive | inactive |
| COc1ccc(NC(=O)N2C[C@H](O)COC[C@@H]3O[C@H](CC(=O)NCc4ccccc4OC)CC[C@H]32)cc1 | inactive | inactive | inactive |
